In PMC12136788:
The other results are listed elsewhere or left out.

T1: UNK ZnF1-3 (human, UniProt Q9C0B0 31-174)
T1 sequence: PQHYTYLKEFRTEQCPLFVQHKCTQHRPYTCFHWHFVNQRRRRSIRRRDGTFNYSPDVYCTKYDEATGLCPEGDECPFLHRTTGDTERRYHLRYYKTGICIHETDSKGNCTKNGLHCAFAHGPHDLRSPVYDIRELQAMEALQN

B1: chr17:66519878:66519879:+_ENSG00000108946_ENST00000358598|hu_mus|motif|central (ssRNA)
RNA: GGGAGUUCUACAGUCCGACGAUCACUUCUCUCGUUAUCAUCAAGGUGUGAAAACAGCACAUUCUUUUCGAUGGCCUUGGCGGAAGCAGCCAUUGUCUUAUAAUCUUUUGGAAUAACCUUUCUAACGUAGGAGGCAGCAUCCUCCAACAGAGGAUUGAGCAUCA
B2: chr2:179515052:179515053:+_ENSMUSG00000000305_ENSMUST00000000314|mus_hu|mus_mus_mus_hu_False|58_88 (ssRNA)
RNA: GGGAGUUCUACAGUCCGACGAUCGCUGUCCCAUGCAGUCACCGUGAAGGCCACCUGCUCGGAGGGGACCUGCAGCUCCCUAGUGGCGAAGACUGUCCCAUCUGCCCCAACUUUGAAGUCCAUGCUGUUGGUCUCAUAUUGUGUCAACAGAGGAUUGAGCAUCA
B3: chr12:69047915:69047916:+_ENSG00000127314_ENST00000393436|hu_hu|FALSE|FALSE (ssRNA)
RNA: GGGAGUUCUACAGUCCGACGAUCCUGUUCUCUCAGGUCUUGUAAAUCGUUAAAUGUGGACUGUGCUGUGAUGGAAUAAACUAAUGCAAAUCCUUGUCCAUUUUUCAUGUAUAAAUCCCUCAUUGCUGUAAAUUGCUCCGUUCCCAACAGAGGAUUGAGCAUCA
B4: chr14:76904430:76904431:+_ENSMUSG00000022010_ENSMUST00000022587|mus_mus|mus_mus_mus_hu_True|68_98 (ssRNA)
RNA: GGGAGUUCUACAGUCCGACGAUCUGCAGCCAAAAACAGAGAGAGGGAAAAAAAGAGGGAACACCAGCAGCCUGGUUUAAGCUAGAUAAAAUCUUCUGGCUUUCCGCAGCCCAGGGAGAAACAGAAAACGGCAGCCCUAAUUUACAACAGAGGAUUGAGCAUCA
B5: chr12:39763582:39763583:-_ENSG00000139116_ENST00000544797|hu_mus|hu_hu_hu_mus_False|18_28 (ssRNA)
RNA: GGGAGUUCUACAGUCCGACGAUCCUCUAGGAACUGGGCAUUCACUUUGAAUUCAGGAGGGGGCAGCCCGUUUUUAAUCGCUGAGGUCUUUUUCUCAUCAAUACUCUUAAAAAGGUGUUUAACAGCUCGAGAGAUGAUGCCCUGCAACAGAGGAUUGAGCAUCA
B6: chr4:24541891:24541892:-_ENSG00000109606_ENST00000336812|perfect_dup|FALSE|FALSE (ssRNA)
RNA: GGGAGUUCUACAGUCCGACGAUCGGAUCCCAAUUCAGUCAGAUCUCCAUCAUCAUUUAAAGCAGCCAGGUAAUUCAAAAGUUCCAGGGCUCUCAUCAGAGUUUCAGGAGCUGGUGGAUCCAUAAAAUCAAAAUGUACCAAGUCCAACAGAGGAUUGAGCAUCA
B7: chr21:34922442:34922443:+_ENSG00000159140_ENST00000381679|hu_hu|FALSE|FALSE (ssRNA)
RNA: GGGAGUUCUACAGUCCGACGAUCCUCAGUAGGUGUCUCUGAUGAUACCACAAGGGUUUCUGAAGGCUCUAACACUUUUGCUACUGGGGGCUCUACCAACAUGAUCUUUGAUGGCUCUGGAGAUGUGCUCUCCACAGAUUUCAGCAACAGAGGAUUGAGCAUCA
B8: chr21:27062186:27062187:+_ENSG00000154721_ENST00000480456|hu_mus|FALSE|FALSE (ssRNA)
RNA: GGGAGUUCUACAGUCCGACGAUCUCCCACCUUCUUCCACUCCAGUCUGGAGGAGGUAGUCUUCUUUGGGGUUUUACAAGCCAAAAUAGCCUCUUGGAACUCUAUUACUGUGACUUCUUGACGGUGGUCUUUUGAUGCAGAAAACAACAGAGGAUUGAGCAUCA
B9: chr6:150114721:150114722:+_ENSG00000120265_ENST00000367380|hu_hu|motif|central (ssRNA)
RNA: GGGAGUUCUACAGUCCGACGAUCGUCCUUCCUGACAUUAUUUACUGAGUCAUCUACUAGCUCUUUAAUGUGAUCAAUUCCGGUGACUUUUCCAGUACAUCCAACCAUACGUGCAAAACAUGCAGUAAGGAUUCCACUUCCAGACAACAGAGGAUUGAGCAUCA
B10: 120442357_120442477_4816_3pUTR_ENSG00000151893_ENST00000369151|human|control|control (ssRNA)
RNA: GGGAGUUCUACAGUCCGACGAUCUCACUCUAGACCCCAAAGGGAGGGUAAUUGCUGCAAAUUUGUUAAAGGGACAGAAGAAAAAGUAGCUUGUCUACAAAAUAAUGCACAAUGCAUGCAUCUGGGUUUGUGUUUCUUCUCACUCAACAGAGGAUUGAGCAUCA
B11: chr10:33214929:33214930:-_ENSG00000150093_ENST00000302278|hu_hu|hu_hu_hu_mus_True|28_88 (ssRNA)
RNA: GGGAGUUCUACAGUCCGACGAUCAACAAGUUCAUUGAAAAACUCUCCUUUAUUAGUAAGACUAAGCACAUUUUUGUAGCUAAAUGGGCUGGUGCAGUUUUGUUCACUUGUGCAAGGAUUUCUUAGCUUUGCUGGGGUUGUGCUCAACAGAGGAUUGAGCAUCA
B12: chr7:30889366:30889367:+_ENSMUSG00000049421_ENSMUST00000108200|mus_hu|FALSE|FALSE (ssRNA)
RNA: GGGAGUUCUACAGUCCGACGAUCUGAAGAAUCAAUGACUGUUCAGAGGAAAUACUUUGUUUCCUAAAUUUUCCCUCAGUCUGUCUUUUCACAGAGAAAGAUGAGACUUAACUUACAAGUCUUUCAUGUUGCGUCUUUAUCUGUCAACAGAGGAUUGAGCAUCA
B13: chr4:25749455:25749456:-_ENSG00000091490_ENST00000264868|hu_hu|hu_hu_hu_mus_False|48_58 (ssRNA)
RNA: GGGAGUUCUACAGUCCGACGAUCGCACUAUGACCUCUAGAAAAAUCCACAGGGGGAAAAAAUGUAAACCAAUGUACAAAGCUAUUGCCCUCCCUGCGUGUGGAGUGUUUGUCUCAAGGCUCCUUCUAGCUGCUGGAUUUGGGACAACAGAGGAUUGAGCAUCA
B14: 88989066_88989186_4604_CDS_ENSMUSG00000036606_ENSMUST00000109331|mouse|control|control (ssRNA)
RNA: GGGAGUUCUACAGUCCGACGAUCACUGUCUGGCUUGGGCCAGCAGGAGCAGGGCUGAGUACGGUACACUUGGUCGAUGAUCUUCUCUUUGACCUGAGAGAUGGUGUCACAGUUGAGGACCUUAACCGGGAUGGCAUCGAUCCCCAACAGAGGAUUGAGCAUCA

Molecular target: T1, UNK ZnF1-3
Test: nsRBNS (natural sequence RNA bind-n-seq); RBNS binding buffer (assumed for nsRBNS): 25 mM Tris pH 7.5, 150 mM KCl, 3 mM MgCl2, 0.01% Triton X-100, 500 ug/ml BSA, 20 U/ml SUPERase-In, 4 C; UNK is unkempt and MSI1 is Musashi-1; names of the RNAs are library labels; protein concentration not given here; high values mean tight binding

Row | Binder | binding signal
1 | B1 | 0.998 enrichment R
2 | B2 | 0.823 enrichment R
3 | B3 | 1.12 enrichment R
4 | B4 | 3.22 enrichment R
5 | B5 | 2.43 enrichment R
6 | B6 | 1.58 enrichment R
7 | B7 | 0.489 enrichment R
8 | B8 | 0.732 enrichment R
9 | B9 | 1.06 enrichment R
10 | B10 | 1.69 enrichment R
11 | B11 | 0.733 enrichment R
12 | B12 | 0.315 enrichment R
13 | B13 | 1.17 enrichment R
14 | B14 | 1.26 enrichment R
